The assay has as its system HCVpp. Kind of assay: HCVpp time-of-addition assay. The following applies: inhibitor added to HEK293T cells only after transfection (II); not before or during infection of Huh-7.5 cells.

`CC(=O)O[C@H]1[C@H](C)O[C@H](OC[C@H]2O[C@@H](n3ccc(=O)n(C(=O)c4ccccc4)c3=O)[C@@H]3OC(C)(C)O[C@@H]32)C[C@@H]1O[Si](C)(C)C(C)(C)C` [Compound 2]: the “effect on infectivity of HCVpp by time of addition” value was “significant decrease in infectivity of HCVpp”.

As for `CC1(C)O[C@@H]2[C@H](O1)[C@@H](CO[C@@H]1C[C@@H](OCc3ccccc3)[C@H](OCc3ccccc3)[C@@H](COCc3ccccc3)O1)O[C@H]2n1ccc(=O)n(C(=O)c2ccccc2)c1=O` [Compound 4], the “effect on infectivity of HCVpp by time of addition” value is “significant decrease in infectivity of HCVpp”.

The record behind these values is article PMC6099588.
